For six molecules, binding result and Kd results are on record in article PMC8437434, “Hsp40s play complementary roles in the prevention of tau amyloid formation” (eLife, 2021).

B2: HSPB1 3D GXG variant (S15D, S78D, S82D, I181G, V183G) (natural protein)
chain: not shown
notes: also called HSPB1 dimer; source: E. coli BL21 (DE3), purified (Ni-NTA, tag cleaved, Superdex 200); not shown: His6, N-terminal, cleaved

Holding throughout (details): both partners purified
Assay [1] has as its target T1, DNAJA2 (UniProt O60884 1-412).
T1 construct: DNAJA2, class A J-domain protein; homodimer (90 kDa dimer as printed); also called class A JDP; Hsp40; source: E. coli BL21 (DE3), purified (Ni-NTA, tag cleaved, Superdex 200); not shown: His6, N-terminal, cleaved
Nature of the assay: NMR titration; 1H-15N HSQC-TROSY of 200 µM 15N-tau, tau^4R or tau^4R P301S/P301L alone and with twofold excess (400 µM) of chaperone; intensity ratios I/I0; 50 mM HEPES pH 7.0, 50 mM KCl, 1 mM DTT, 25 °C; no heparin.

The target of another assay is T2, full-length DNAJB1 (UniProt P25685 1-340).
T2 construct: DNAJB1, class B J-domain protein; homodimer; plasmid a gift from B. Bukau; 2H, 13CH3-ILVM labelled for methyl-TROSY NMR; also called class B JDP; Hsp40; source: E. coli BL21 (DE3), purified (Ni-NTA, tag cleaved, Superdex 200); not shown: His6, N-terminal, cleaved
Described as above.

For assay [2], the target named is B2. The description is as above.
The target of assay [3] is T3, full-length tau (2N4R), C322S (UniProt P10636-8 1-441, C322S).
T3 construct: microtubule-associated protein tau, longest splice isoform 2N4R, with C322S; 15N-labelled for NMR; also called 15N-tau; source: E. coli BL21 (DE3), purified (Ni-NTA, tag cleaved, Superdex 75); not shown: His6, N-terminal, cleaved
The description is as above.

For another assay, the target named is T4, DNAJA2(Ydj1)^111-351 (Saccharomyces cerevisiae, UniProt P25491 111-351).
T4 construct: Ydj1, DNAJA2 homologue of Saccharomyces cerevisiae, residues 111-351 (CTDI with ZFLR, CTDII; no dimerization domain; monomeric, 27 kDa); 2H, 15N labelled; also called monomeric version of Ydj1; source: E. coli BL21 (DE3), purified (Ni-NTA, tag cleaved); not shown: His6, N-terminal, cleaved
T4 sequence (looked up): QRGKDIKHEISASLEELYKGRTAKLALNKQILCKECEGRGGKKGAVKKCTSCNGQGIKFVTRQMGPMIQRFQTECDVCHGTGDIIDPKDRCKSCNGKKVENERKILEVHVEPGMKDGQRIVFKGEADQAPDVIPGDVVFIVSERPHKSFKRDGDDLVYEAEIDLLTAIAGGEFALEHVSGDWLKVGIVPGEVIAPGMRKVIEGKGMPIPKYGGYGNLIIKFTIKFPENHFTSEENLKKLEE
Nature of the assay: NMR titration; 1H-15N HSQC-TROSY of 200 µM 2H,15N-labelled DNAJB1^154-341, Ydj1^111-351 or Ydj1^256-409 alone or with twofold excess of deuterated monomeric tau^4R; 50 mM HEPES pH 7.0, 50 mM KCl, 25 °C; no heparin.

The target in a further assay is T5, DNAJB1 G194C-AF488 (UniProt P25685 1-340, G194C, AF488 (as printed: G194C-AF488)).
T5 construct: DNAJB1 with G194C, labelled with AF488; also called fluorescently tagged DNAJB1
The assay can be described thus: fluorescence polarisation; steady-state binding of 100 nM AF488-labelled chaperone to preformed tau fibers; 37 °C; one-site model. In general terms: Polarisation of emitted light reports the rotation of a fluorescent probe.

In another assay the target is T6, DNAJA2-AF488 (UniProt O60884 1-412, AF488 (site not stated)).
T6 construct: DNAJA2 labelled with AF488; also called fluorescently tagged DNAJA2
The description is as above.

Assay [4] has as its target T1, DNAJA2. The assay can be described thus: fluorescence polarisation; fluorescence anisotropy of 100 nM AF488-labelled monomeric tau with chaperones; 10 min at 37 °C; one-site model.
Assay [5] deals with B2. The assay is described as above.

B1: tau^4R P301L (domain or fragment)
chain: not shown
notes: tau […] with C322A and the familial tauopathy mutation P301L; also called tau P301L mutant; source: E. coli BL21 (DE3), purified (Ni-NTA, tag cleaved, Superdex 75); not shown: His6, N-terminal, cleaved
For B1, the binding result (with DNAJA2 [1]; with full-length DNAJB1; in assay [2]) was “binds” each time.
Consider B2, for which the binding result in [3] is given as “binds”.

B3: tau^4R ([…], C322A) (domain or fragment)
chain: not shown
notes: it is told apart by the assay (a2, a9, a11); Used 15N-labelled, deuterated or unlabelled; also called K18; monomeric tau; source: E. coli BL21 (DE3), purified (Ni-NTA, tag cleaved, Superdex 75); not shown: His6, N-terminal, cleaved
For the molecule B3, the binding result with DNAJA2(Ydj1)^111-351 is recorded as “binds”.

B4: preformed tau^4R fibrils (complex)
chain: not shown
notes: tau […] with C322A, assembled into amyloid fibrils; Same chain as m2 in the amyloid state; also called tau fibers; tau amyloid fibrils; source: E. coli BL21 (DE3), purified; preformed fibers; not shown: His6, N-terminal, cleaved
In the case of B4, the Kd (usually the equilibrium constant for the complex coming apart) with DNAJB1 G194C-AF488 is 1700 nM; in the assay with DNAJA2-AF488 it was 7.6 µM.

B5: tau^4R P301S (domain or fragment)
chain: not shown
notes: tau […] with C322A and the familial tauopathy mutation P301S; also called tau P301S mutant; source: E. coli BL21 (DE3), purified (Ni-NTA, tag cleaved, Superdex 75); not shown: His6, N-terminal, cleaved
On to B5, for which the binding result (with DNAJA2 [1]; with full-length DNAJB1; in assay [2]) was “binds” throughout.

B6: tau C291S, C322S, L243C-AF488 (natural protein)
chain: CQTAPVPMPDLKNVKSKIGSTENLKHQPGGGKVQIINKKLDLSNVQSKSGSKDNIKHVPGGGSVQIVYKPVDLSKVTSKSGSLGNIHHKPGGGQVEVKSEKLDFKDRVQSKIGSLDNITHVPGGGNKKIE
modifications: AF488 (as printed: L243C-AF488)
In the case of B6, the Kd with DNAJA2 [4] stood at 43 µM; in assay [5], 250 µM.
